{"source": "PubChem BioAssay AID463173", "about": "(ICCB-Longwood Screening Facility, Harvard Medical School, 2010)", "note": "Screen size: about 52,000 compounds; about 1,700 (3.3%) were called active. No stated cut-off is given here; in the data, active means survival mostly below about 52% (no sharp cut-off); inactive means mostly above about 56%. Some of the results follow.", "data": [{"system": "Wild type", "assay": "S. aureus survival, RN4220 and DeltatarO strains – OD600, teichoic acid synthesis inhibitors, primary screen (AID 463173)", "details": "S. aureus RN4220 wild type/DeltatarO growth, OD600, 18 h, hits give low values, screened at 18.75 µg/mL (by protocol)", "values": [{"smiles": "COc1cc(OC)c(NC(=O)CCc2c(C)nc3ncnn3c2C)cc1Cl", "survival": "inactive: 71%"}, {"smiles": "CCC(=O)N1c2ccccc2CC1C(=O)NCc1ccccc1Cl", "note": "(configuration not stated)", "survival": "inactive: 68%"}, {"smiles": "Cc1cccc(NC(=O)CCn2cnnn2)c1C", "survival": "inactive: 71%"}, {"smiles": "Cc1ccc(Cn2cccc(NC(=O)c3ccncc3)c2=O)cc1", "survival": "inactive: 104%"}, {"smiles": "Cc1cccc(NC(=O)Cn2cc(C(=O)c3ccco3)c3ccccc32)c1", "survival": "inactive: 97%"}, {"smiles": "Cc1ccc(CNC(=O)c2ccc(Cn3c(=O)c4ccccc4n(CC(=O)Nc4ccc(C)cc4)c3=O)cc2)cc1", "survival": "inactive: 69%"}, {"smiles": "O=C(NCCc1ccccc1)c1ccc(Cl)nc1", "survival": "inactive: 97%"}, {"smiles": "COc1ccc(Cn2cc(S(=O)(=O)c3ccc(Cl)cc3)c(=O)c3cc4c(cc32)OCO4)cc1", "survival": "inactive: 76%"}, {"smiles": "O=C1CN(Cc2ccccc2)C(=NCc2ccco2)S1", "survival": "inactive: 104%"}, {"smiles": "CC1CCN(CC(=O)N2CCN(c3ccccc3)CC2)CC1", "survival": "inactive: 106%"}, {"smiles": "Cc1ccccc1OCCn1c(-c2ccc(Cl)cc2)nc2ccccc2c1=O", "survival": "inactive: 63%"}, {"smiles": "O=C(OCc1cc(=O)n2nc(C3CCCCC3)sc2n1)c1ccc(F)cc1", "survival": "inactive: 55%"}, {"smiles": "CCOc1ccc(NC(=O)CC2C(=O)N(c3ccc(Cl)cc3)C(=O)N2Cc2cccs2)cc1", "note": "(configuration not stated)", "survival": "inactive: 71%"}, {"smiles": "O=C(Nc1ccc2oc(-c3ccncc3)nc2c1)c1ccccc1Cl", "survival": "inactive: 73%"}, {"smiles": "Cc1oc(-c2ccc(Cl)cc2)nc1CSc1nc2ncccc2[nH]1", "survival": "inactive: 110%"}, {"smiles": "COc1ccc(-c2noc(-c3cccnc3N3CCN(c4ccc(OC)cc4)CC3)n2)cc1", "survival": "inactive: 89%"}, {"smiles": "O=C(Nc1cccc(Cl)c1)c1ccc2c(c1)CCN2S(=O)(=O)c1ccccc1", "survival": "inactive: 76%"}, {"smiles": "CCCCN(CC)C(=O)CSc1c2c(nc3ccc(Cl)cc13)CCCC2", "survival": "active: -2%"}, {"smiles": "CCOc1ccc(NC(=O)c2sc3nc4c(c(-c5ccc(OC)cc5)c3c2N)C(=O)CC(C)(C)C4)cc1", "survival": "inactive: 69%"}, {"smiles": "CCOc1ccc(-n2cc(-c3ccccc3)c3c(N4CCN(c5ccccc5OC)CC4)ncnc32)cc1", "survival": "inactive: 70%"}, {"smiles": "COC(=O)c1c(NC(=O)/C(C#N)=C/c2ccccc2)sc2c1CCC2", "survival": "inactive: 74%"}, {"smiles": "COc1ccccc1Nc1cc(C(=O)NC2CCC(C)CC2)c2ccccc2n1", "note": "(configuration not stated)", "survival": "inactive: 84%"}, {"smiles": "CCOCCCNC(=O)CN1C(=O)COc2ccc(S(=O)(=O)N3CCCC3)cc21", "survival": "inactive: 77%"}, {"smiles": "CCOC(=O)c1c(C)[nH]c(C)c1S(=O)(=O)N1CCCC(C(=O)NCc2ccc(Cl)cc2)C1", "note": "(configuration not stated)", "survival": "inactive: 59%"}, {"smiles": "COc1ccccc1CN1C(=O)CN(C2CCCCCC2)C(=O)C1c1ccc(F)cc1", "note": "(configuration not stated)", "survival": "inactive: 77%"}, {"smiles": "N#C/C(=C\\c1cn(Cc2ccccc2C#N)c2ccccc12)C(=O)NCc1cccs1", "survival": "inactive: 110%"}, {"smiles": "Cc1ccc2nc(Nc3ccc(C)c(F)c3)c3nncn3c2c1", "survival": "inactive: 43%"}, {"smiles": "Cc1ccc(CNC(=O)CCn2cnc3ccccc3c2=O)cc1", "survival": "inactive: 80%"}, {"smiles": "Cc1c(Cl)cccc1NC(=O)C1CCN(c2ncnc3c2nc2n3CCCCC2)CC1", "survival": "inactive: 129%"}, {"smiles": "CCN(C(=O)Nc1cn(CC(C)C)c(=O)c2ccccc12)c1cc(C)ccc1C", "survival": "inactive: 65%"}, {"smiles": "Cc1ccc(N2CC(NC(=O)c3ccc(S(=O)(=O)N4CCOCC4)cc3)CC2=O)cc1", "note": "(configuration not stated)", "survival": "inactive: 47%"}, {"smiles": "CCOC(=O)c1cnn(-c2ccc(C(=O)Nc3cccc(C(C)=O)c3)cc2)c1N", "survival": "inactive: 47%"}, {"smiles": "CCn1nc(C)c(CCN(C)C(=O)Nc2cc(OC)c(OC)c(OC)c2)c1C", "survival": "inactive: 71%"}, {"smiles": "Cc1ccnc(NC(=O)CCCOc2ccc(Cl)cc2Cl)c1", "survival": "inactive: 98%"}, {"smiles": "O=C(COCc1cc(-c2cccs2)on1)N1CCN(c2cccc(Cl)c2)CC1", "survival": "active: 10%"}, {"smiles": "COc1ccc2cc(C(=O)NCc3ccc4c(c3)CCN4C(=O)c3ccc(F)cc3)[nH]c2c1", "survival": "inactive: 68%"}, {"smiles": "COc1ccc(-n2c(C)nc(=O)c(-c3ccccc3)c2C)cc1", "survival": "inactive: 106%"}, {"smiles": "O=C(O)c1c2c(nc3ccc(F)cc13)CCCC2", "survival": "inactive: 114%"}, {"smiles": "O=C(CCn1c(=O)c2cccn2c2cccnc21)N1CCN(c2ccccc2F)CC1", "survival": "inactive: 86%"}, {"smiles": "COc1cc(C)cc2oc(=O)c(CC(=O)NCCc3ccc(Cl)cc3)c(C)c12", "survival": "inactive: 118%"}, {"smiles": "Fc1cccc(-c2nnn3c2nc(NCCc2ccccc2)c2ccccc23)c1", "survival": "inactive: 87%"}, {"smiles": "Cc1cccc(OCC(=O)Nc2ccc(-c3nc4ccccc4o3)cc2)c1C", "survival": "inactive: 73%"}, {"smiles": "COc1ccc(-c2cc(C(F)(F)F)n3nc(C(=O)NCCN4CCOCC4)c(Br)c3n2)cc1", "survival": "inactive: 101%"}, {"smiles": "CC(C)CNC(=O)N1[C@H](c2cccs2)[C@@H](C)C(=O)[C@@H](C)[C@@H]1c1cccs1", "survival": "inactive: 74%"}, {"smiles": "CC(=O)NC1(c2ccccc2)CCN(Cc2nnnn2C(C)(C)C)CC1", "survival": "inactive: 102%"}, {"smiles": "COc1ccc(C)cc1NS(=O)(=O)c1c(C(=O)N2CCCCCC2)c(C)n(C)c1C", "survival": "inactive: 85%"}, {"smiles": "CCn1nnnc1SCC(=O)c1ccc(C)cc1C", "survival": "inactive: 103%"}, {"smiles": "CC(C)OCCCNC(=O)Cn1ccc2cc(S(=O)(=O)N3CCCCCC3)ccc21", "survival": "inactive: 124%"}, {"smiles": "COc1ccc(CC(=O)NCCc2csc(-c3cccc(C)c3)n2)cc1", "survival": "inactive: 74%"}, {"smiles": "CC(C)Nc1nc(NC(C)C)nc(C(N)=O)n1", "survival": "inactive: 112%"}, {"smiles": "COc1ccc(C)cc1NC(=O)C1CCN(S(=O)(=O)c2ccc(OC)c(OC)c2)CC1", "survival": "inactive: 92%"}, {"smiles": "CC(C)NC(=O)c1cnn2c(C(F)F)cc(-c3ccccc3)nc12", "survival": "inactive: 112%"}, {"smiles": "O=c1c2ccccc2nc2c3ccccc3c(N3CCCCCC3)nn12", "survival": "inactive: 105%"}, {"smiles": "CC(=O)c1cccc(NC(=O)CC(c2ccc(C)cc2)N2Cc3ccccc3C2=O)c1", "note": "(configuration not stated)", "survival": "inactive: 77%"}, {"smiles": "Cc1nc(-c2ccccc2)sc1-c1ccc(SCC(=O)NCc2ccc(Cl)cc2)nn1", "survival": "inactive: 92%"}, {"smiles": "Cc1oc(-c2ccccc2Cl)nc1Cn1c(SCc2cccc(F)c2)nc2cccnc21", "survival": "inactive: 71%"}, {"smiles": "C=Cn1c(C(=O)O)ccc1-c1ccc(OC)cc1", "survival": "inactive: 125%"}, {"smiles": "Cc1ccc(CCNS(=O)(=O)c2ccc3c(c2)CC(C)N3C(=O)C2CCC2)cc1", "note": "(configuration not stated)", "survival": "inactive: 71%"}, {"smiles": "Cc1ccc(-n2c(=O)[nH]c3cc(C(=O)NCc4ccccc4)ccc3c2=O)cc1", "survival": "inactive: 92%"}, {"smiles": "COc1cc2ncc(C(=O)c3ccc(C)cc3)c(N3CCCCC3)c2cc1OC", "survival": "active: 2%"}, {"smiles": "CC(CNC(=O)c1nnc(Cc2ccc(F)cc2)o1)c1ccccc1", "note": "(configuration not stated)", "survival": "inactive: 89%"}, {"smiles": "Cc1ccc(-n2nc3c(=O)n(CC(=O)NCCC(C)C)nc(C)c3c2C)cc1", "survival": "inactive: 45%"}, {"smiles": "O=C1CC(NC2CC2)C(=O)N1c1ccccc1", "note": "(configuration not stated)", "survival": "inactive: 108%"}, {"smiles": "COCCCNC(=O)Cn1c(=O)nc(-c2ccccc2)c2ccccc21", "survival": "inactive: 80%"}, {"smiles": "CCOc1ccc(CCNC(=O)c2cc(C)nc3c2c(C)nn3-c2cccc(F)c2)cc1", "survival": "inactive: 70%"}, {"smiles": "Cc1cccn2c(=O)c(C(=O)NCCc3ccccc3)cnc12", "survival": "inactive: 49%"}, {"smiles": "CCCCC12CN3CC(C)(CN(C1)C3c1ccc(O)c(OC)c1)C2=O", "note": "(configuration not stated)", "survival": "inactive: 86%"}, {"smiles": "COc1ccc(Cn2cc(C(=O)c3ccc(C)c(C)c3)c(=O)c3ccccc32)cc1", "survival": "inactive: 72%"}, {"smiles": "O=C(Cn1cc(S(=O)(=O)Cc2cccc(Cl)c2)c2ccccc21)Nc1ccccc1Cl", "survival": "inactive: 54%"}, {"smiles": "COc1cccc(NC(=O)CSc2nccn2C2CCCC2)c1", "survival": "inactive: 73%"}, {"smiles": "COc1ccc(CNCCC(c2ccc3c(c2)OCO3)c2ccccc2OC)cc1", "note": "(configuration not stated)", "survival": "inactive: 25%"}, {"smiles": "CC1CCN(c2nc3ccc(C(=O)NCc4ccccc4Cl)cc3s2)CC1", "survival": "inactive: 89%"}, {"smiles": "O=C(NC1CCCC1)c1ccc2c(c1)N(Cc1ccccc1)C(=O)c1ccccc1S2", "survival": "inactive: 79%"}, {"smiles": "Cc1ccc(F)cc1NC(=O)Cn1c(C)cc(C)c(C#N)c1=O", "survival": "inactive: 131%"}, {"smiles": "COc1ccc(C2=C(N3CCN(c4cccc(C)c4)C(C)C3)c3ccccc3C2=O)cc1", "note": "(configuration not stated)", "survival": "inactive: 68%"}, {"smiles": "COc1cccc(CNC(=O)Cc2c(C)c3ccc(OC)c(C)c3oc2=O)c1", "survival": "inactive: 90%"}, {"smiles": "NC(=O)C1CCN(C(=O)Cc2ccc(Cl)cc2)CC1", "survival": "inactive: 88%"}, {"smiles": "CCCCCCNc1nc(Oc2ccccc2)nc(Oc2ccccc2)n1", "survival": "inactive: 110%"}, {"smiles": "COc1ccc(N2CCN(Cc3nc4c(c(=O)[nH]c(=O)n4C)n3CC(C)C)CC2)cc1", "survival": "inactive: 149%"}, {"smiles": "O=C(NCc1cccc(Br)c1)c1ccc(NC(=O)N2CCCCc3ccccc32)cc1", "survival": "inactive: 79%"}, {"smiles": "Cc1ccc(S(=O)(=O)c2nnn3c2nc(NCCc2ccccc2)c2sccc23)cc1", "survival": "inactive: 64%"}, {"smiles": "Cc1ccc(CNC(=O)c2c[nH]n3c(=O)c(Cc4ccc(Cl)cc4)c(C)nc23)cc1", "survival": "active: -14%"}, {"smiles": "Cc1ccccc1C(=O)Nc1c(C)nc2ccccn2c1=O", "survival": "active: 10%"}, {"smiles": "Cn1c(=O)oc2cc(S(=O)(=O)N3CCCC(C(=O)NCCc4ccccc4)C3)ccc21", "note": "(configuration not stated)", "survival": "inactive: 91%"}, {"smiles": "CC(=O)c1ccc(NS(=O)(=O)c2ccc3[nH]c4c(c3c2)CCCC4)cc1", "survival": "inactive: 84%"}, {"smiles": "Cc1ccc2[nH]c(=O)c(CNCCCO)cc2c1", "survival": "inactive: 108%"}, {"smiles": "CC1(C)NC(=O)N(CC(O)COc2ccc(N3C(=O)c4ccccc4C3=O)cc2)C1=O", "note": "(configuration not stated)", "survival": "inactive: 104%"}, {"smiles": "CCc1ccc(S(=O)(=O)c2cn(Cc3ccccc3F)c3cc(OC)c(OC)cc3c2=O)cc1", "survival": "inactive: 85%"}, {"smiles": "COc1ccc(NC(=O)CSc2nnc(NC(=O)NC3CCCCC3)s2)cc1OC", "survival": "inactive: 65%"}, {"smiles": "Cc1cccc(CNC(=O)c2ccc3nc(Cc4ccccc4)oc3c2)c1", "survival": "inactive: 130%"}, {"smiles": "O=C(NCCc1ccccc1)c1nn(-c2ccc(F)cc2)nc1CO", "survival": "inactive: 126%"}, {"smiles": "COCCCn1c(SCC(=O)N2CC(=O)Nc3ccccc32)nnc1-c1ccoc1C", "survival": "inactive: 93%"}]}]}
